According to the supplement of paper PMC3334620:
Whole data set: some 33,000 sequences, median “E-score (-0.5 to 0.5)” near -0.056, cut for the highest 2% near 0.38. This is one part of the list.

target: Stb4 (UniProt P50104); assay: PBM E-score (8-mer binding enrichment) (E-score (-0.5 to 0.5)); higher = stronger / more preferred TF binding; most listed sequences are background and not binding sites; conditions: protein concentration: 200 nM; construct: GST-DNA-binding domain
Outline: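 E-scores (a modified Wilcoxon-Mann-Whitney statistic) were assigned by the Universal PBM Analysis Suite to every ungapped eight-base word pooled with its reverse complement. The input came from universal all-10-mer Agilent arrays made double-stranded by primer extension and probed with GST-tagged yeast transcription factors at about 100-200 nM. Fluorescent anti-GST detected bound protein, and masliner normalised the scans.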

Sequence | PBM E-score
CCATTCGG | 0.297
AACAACAC | -0.215
CTCGGTAA | 0.431
AGATATCT | -0.13
CCTCTACG | -0.102
GCAGATCA | -0.261
CAAGTGCA | -0.338
ATCGTATA | 0.0886
AATTACAC | 0.122
ATTATAGG | 0.0435
AAACCAAC | -0.078
ACTGACCA | -0.231
ATGGCGGC | 0.144
AAACCTAT | -0.175
GCAATTAC | 0.0107
TAATCAAA | 0.128
CAATAAGG | -0.314
ACACCAAT | 0.00344
CCTCCGGC | 0.295
ACCAGGAT | 0.0452
TCCTGACA | -0.148
CTATATGA | -0.107
CGAATTAG | 0.105
GCGGACTA | 0.115
GGGTATAC | 0.259

Sequence | PBM E-score
CACCTTCG | 0.159
TCGCTGAA | -0.0933
CTACTTCA | -0.0345
CGCACCAC | -0.0216
ATAAGTGG | -0.0724
AACGTGCG | -0.0294
AGGCAACA | -0.167
AGGCGGAA | 0.278
GGGCGGTA | 0.17
TCGCACAA | -0.258
ATACATTG | -0.0328
ATGTAGGC | 0.0308
GTGCATCA | -0.158
GGCAGCTA | -0.00249
AGAGCGTC | -0.207
AGGTCAAT | -0.251
ATTCAGGC | -0.194
CCAACCCA | -0.136
ACGACCAT | -0.226
CCACGGTC | -0.169
GGCGCTAC | -0.152
AAAGGCGA | -0.0639
CGGATCGA | 0.404
ACACGGTG | 0.105
GGTTGAGA | 0.0322

Sequence | PBM E-score
TAAAAAAA | 0.0362
ACTGTACA | -0.271
CACGCCGC | -0.0572
CGCCGACA | 0.227
AGCGTGTC | -0.202
ACTTCTAC | -0.0905
TATCTGGA | -0.0963
CGGTGTGC | 0.0544
ACGGCTTG | -0.0119
ATTCCTAG | -0.151
CTATATAA | -0.121
CAGCCAAC | -0.178
CGGACCCA | 0.209
AATATTCT | 0.103
CAGAACTG | -0.153
AGCGGTAT | -0.0689
AACGTGAG | -0.12
AAGGCAGG | -0.281
GGGTTCTA | 0.0192
AAAGCTTG | -0.252
AGTGAGGA | -0.324
AAAAGCCC | 0.0263
CCTTACCC | -0.0592
AATACCCT | 0.0669
CATACGAG | -0.155

Sequence | PBM E-score
CTTCTATA | -0.252
GCGCAGGA | -0.213
AAATTCTA | -0.109
ACGGATCA | 0.325
CCGGTATA | 0.214
AGCGGCGA | 0.131
GCTTTGCC | -0.0276
AGTCAATA | 0.0492
GCTTCCAA | -0.147
AAGGTTGT | -0.135
CCCGCACA | 0.101
TTAACTAA | 0.0246
TCCCCACA | -0.384
GCAAAGTA | -0.0302
AACCTGGG | -0.239
CCGGTGGC | 0.175
AAGACGGT | -0.173
GCCTTCTA | -0.285
AGCCTCAA | -0.206
ACCTTATC | 0.0924
AACTTCGT | -0.177
CCCACCCG | 0.326
GTTTTTGA | 0.0395
ACCCAATG | -0.174
ACGGCATC | 0.124

Sequence | PBM E-score
ATGTACTC | -0.0791
GTTGTGCA | -0.105
TCAGCTCA | 0.0343
CATCAATG | -0.0657
CTGTTCAC | -0.243
CACTGACA | -0.124
AAAGTCTG | -0.366
CTCCGGTA | 0.254
ACAGGCAG | -0.204
ACACCTGA | -0.0979
AAGGAATC | -0.0415
GTTAGCGA | -0.0707
ATGCTTCC | 0.255
ATTACCCG | 0.416
CTCCGCTC | 0.0335
ACACGGCA | 0.111
CGCTCTAC | -0.135
ACTTTACA | -0.0156
TATTGGAA | -0.215
AGGCTCGG | 0.432
CAGCGCAC | -0.152
ATTGCCGG | 0.301
CCCGACTA | 0.301
CGGATAAA | 0.465
GCAGGGGC | -0.187

Sequence | PBM E-score
GTCTGATA | -0.0657
AGAAACCG | 0.177
AAAGTAGA | -0.141
GATCGCTA | -0.119
GCACTGGA | -0.312
CTCAGGGA | -0.257
GCCAATCC | 0.158
CTCGACGA | -0.265
CCTGCTCG | -0.0836
ATGCGGCA | 0.0935
GTCTAATA | -0.287
TCGGGAAA | 0.443
TATGATAA | 0.0382
AAACGCAT | -0.17
ATTTGACA | -0.164
CCATCCGA | 0.453
ATAATCAA | 0.0376
AGAGTGCC | -0.176
GCAATTTA | 0.0475
CGGCGGAG | 0.259
CTAAGGGC | -0.283
GTTTCCAA | -0.1
ATGCGCAG | -0.112
ATAGGATA | -0.00309
AGTCCCTA | -0.179

Sequence | PBM E-score
GGGTCAAA | 0.0949
ACGTATAG | -0.186
GACTAAAA | 0.111
AACTTACC | 0.229
CTAACAAC | 0.0404
TAATTGGA | -0.139
AAGTTTCG | 0.124
AAGTGATA | -0.179
ACCTCAAT | -0.192
CGAATATA | 0.235
CGATCAGA | -0.159
AGTACTTG | -0.267
CGGGCACA | 0.109
GCCGATAA | 0.277
CTCCAGGA | -0.146
AACATGTT | -0.00741
CACGGAGA | 0.14
TAAAATCA | 0.00279
CGACCGCC | 0.03
CGGGGCGC | 0.216
ACGGCGGG | 0.17
GGAGCAAA | 0.0302
TTCAGAAA | -0.23
CAAGCCTC | -0.159
CCAAACCC | 0.0715

Sequence | PBM E-score
AACAGGCC | 0.13
ATGTAATG | -0.00629
CGGGCGTC | 0.15
CTCGATTA | -0.0752
GAAAACTA | 0.143
ATATGGCC | -0.0809
AGCTAAAT | -0.176
CGGAGAGC | 0.225
GGAAACAC | 0.264
ACGTGGCT | -0.135
AGAGTTGC | 0.158
GCAAGGCA | -0.253
AACACACG | -0.18
CATACACC | 0.178
TATGTTCA | -0.123
AGGCTGCC | 0.0642
AACGTTGA | -0.0385
TGCACCAA | -0.363
CAAGGGTA | -0.0729
CGATTGTA | 0.104
ATTGCCTC | -0.0917
GCTCGCCA | -0.0156
CATTTCAG | -0.13
GCCGCAGA | 0.0341
ACTGGTAA | 0.0321

Sequence | PBM E-score
GCTCCCAA | -0.272
AGCAGTTG | -0.046
AAACGTGA | -0.218
GTCCGCCA | -0.128
TTGCTAAA | -0.017
AATGCTTG | -0.0727
GCAGATGC | -0.292
GGCCACAC | -0.00989
TCGTTGCA | -0.185
CACAGGCG | -0.171
AAGCCAAT | -0.0856
TAACAAAA | -0.054
ACATTGTA | -0.00506
CACTCCAC | -0.154
AGACTCCT | -0.156
TCACGAAA | -0.0978
ATCTAGGC | -0.279
CGCCGGCC | 0.265
ACGCTTCG | 0.136
